Out of some 48,000 compounds screened, about 550 (1.1%) were called active. About 4% were inconclusive and are not listed. Rule as the data show it: active = potency below about 15 µM; inconclusive = mostly about 16 µM to 33 µM; inactive = weaker than that. The list shows a part of the results. A value given as a limit tells only on which side of the number the result lay.
Potency is read from the fitted curve at half-maximal effect.

UniProt P04062, sequence (P04062 whole entry, looked up): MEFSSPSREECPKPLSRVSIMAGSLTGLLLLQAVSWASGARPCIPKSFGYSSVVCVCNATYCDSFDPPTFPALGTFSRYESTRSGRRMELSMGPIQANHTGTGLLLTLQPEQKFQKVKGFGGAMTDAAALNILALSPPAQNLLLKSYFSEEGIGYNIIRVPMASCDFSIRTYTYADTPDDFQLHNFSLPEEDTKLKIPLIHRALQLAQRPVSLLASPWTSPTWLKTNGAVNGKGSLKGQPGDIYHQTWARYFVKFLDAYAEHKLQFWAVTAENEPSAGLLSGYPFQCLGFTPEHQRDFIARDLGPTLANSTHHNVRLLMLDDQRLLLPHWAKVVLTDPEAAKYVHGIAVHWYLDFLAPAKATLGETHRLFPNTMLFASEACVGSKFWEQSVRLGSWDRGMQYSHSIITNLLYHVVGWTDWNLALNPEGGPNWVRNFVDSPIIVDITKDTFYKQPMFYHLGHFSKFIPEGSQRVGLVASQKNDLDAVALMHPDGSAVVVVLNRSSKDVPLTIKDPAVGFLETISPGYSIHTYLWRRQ

This assay addresses Lysosomal acid glucosylceramidase (Homo sapiens) (UniProt P04062). In words: Glucocerebrosidase.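 Also: the screen sought inhibitors.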 As to conditions: purified enzyme, resorufin glucoside fluorescence (screen aimed at inhibitors), 20 min. The gist of the method:
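Normal human glucocerebrosidase (0.2 nM final) was assayed with resorufin β-D-glucopyranoside (30 uM final) in 50mM citric acid/KH2PO4, 10mM sodium taurocholate, 0.01% tween-20, pH 5.9. Compounds were titrated; fluorescence (Ex 548, Em 600) read after 20 min at RT.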
For `CCN(CC(=O)Nc1ccc(OC)c(OC)c1)S(=O)(=O)c1ccc(C)cc1`, the Potency was inactive: > 76.9 µM.
On to `COc1ccccc1N(C)S(=O)(=O)c1ccc(C(=O)OCC(=O)NCc2ccco2)cc1`, for which the Potency is inactive: > 76.9 µM.
Turning to `CCOCCCNC(=O)C1c2ccccc2C(=O)N2CCc3ccccc3C12` (stereo unspecified), the Potency was inactive: > 76.9 µM.
The same measure for `COc1cc2cc(CN(CCCO)S(=O)(=O)c3ccccc3)c(=O)[nH]c2cc1OC`: inactive: > 76.9 µM.
In the case of `Cn1c(=O)cc(OCC(=O)NCc2ccccn2)c2ccccc21`, the Potency is inactive: > 76.9 µM.
The same measure for `COc1ccc(CCNC(=O)CN(C2CCCCC2)S(C)(=O)=O)cc1OC`: inactive: > 76.9 µM.
The same measure for `N#Cc1cc2c(=O)n3ccccc3nc2n(Cc2cccnc2)c1=O`: inactive: > 76.9 µM; for `Cc1cccc(CCNC(=O)C2CCCN(S(=O)(=O)c3cccc4nsnc34)C2)c1` (stereo unspecified): inactive: > 76.9 µM.
For the compound `CC1CCCCC1NC(=O)CSc1nnc(COc2ccccc2Cl)o1` (stereo unspecified), the Potency was inactive: > 76.9 µM.
For the compound `CCOc1ccc(C2=Nn3c(nnc3-c3ccccc3)SC2)cc1Cl`, the Potency is inactive: > 76.9 µM.
To `COc1ccccc1NC(=O)CC(NCc1ccccc1)C(=O)O` (stereo unspecified) belongs inactive: > 76.9 µM; to `Cc1nc2c3cnn(-c4ccc(C)c(C)c4)c3ncn2n1`, inactive: > 76.9 µM.
The same measure for `Cc1nnc(NC(=O)C2(c3ccccc3)CCOCC2)s1`: inactive: > 76.9 µM.
Regarding `CCCOc1ccc(N2C(=O)CC(N3CCCC(C(=O)N4CCCC4)C3)C2=O)cc1` (stereo unspecified), the Potency is inactive: > 76.9 µM.
The same measure for `Cc1cccc(Cn2cnc3c(nnn3Cc3ccc(F)cc3)c2=O)c1`: inactive: > 76.9 µM.
Turning to `Cc1ccc(-n2ncc(C#N)c2/N=C/N2CCOCC2)cc1`, the Potency was inactive: > 76.9 µM.
To `COCCN1C(=O)C(CC(=O)Nc2ccc(C(C)=O)cc2)SC1=Nc1ccccc1` (stereo unspecified) belongs inactive: > 76.9 µM; to `COc1ccc(Nc2nnc(Cc3ccc(Cl)cc3)c(=O)[nH]2)c(OC)c1`, inactive: > 76.9 µM; to `Cc1cc(C)c2c(CC(=O)Nc3ccc(Cl)cn3)coc2c1`, inactive: > 76.9 µM.
The same measure for `Cc1cc(=O)[nH]c(SCc2nc3ncccn3c2Br)n1`: inactive: > 76.9 µM; for `Cc1ccc(C(=O)Nc2nnc(-c3cccs3)s2)cc1C`: inactive: > 76.9 µM; for `CCC(=O)Nc1ccc(S(=O)(=O)Nc2cccnc2)cc1`: inactive: > 76.9 µM.
In the case of `Cn1c(=O)c2c(nc(NCc3ccco3)n2C)n(C)c1=O`, the Potency is inactive: > 76.9 µM.
To `CCCc1ccc(C(C)NC(=O)c2cnccn2)cc1` (stereo unspecified) belongs inactive: > 76.9 µM; to `CN(C(=O)CSc1nnnn1-c1ccccc1)C1CCCCC1`, inactive: > 76.9 µM.
The same measure for `Cn1c(SC/C=C/c2ccccc2)nnc1-c1cccs1`: inactive: > 76.9 µM; for `CC1Oc2ccccc2N(CC(=O)NCc2cccs2)C1=O` (stereo unspecified): inactive: > 76.9 µM; for `O=C(OCC(=O)N1CCCC1)c1cccs1`: inactive: > 76.9 µM.
To `O=C(NC1CCCCC1)N1CCN(Cc2nc3ccccc3c(=O)[nH]2)CC1` belongs inactive: > 76.9 µM; to `COCc1nnc(NS(=O)(=O)c2ccc(Br)cc2)s1`, inactive: > 76.9 µM; to `Cc1ccc(CN2CCSc3ccc(C(=O)N4CCN(c5ncccn5)CC4)cc32)cc1`, inactive: > 76.9 µM.
For the compound `O=C1N(c2ccccc2)C2CS(=O)(=O)CC2N1c1ccc(Br)cc1` (stereo unspecified), the Potency was inactive: > 76.9 µM.
In the case of `O=C(Cc1c(O)c2ccccc2[nH]c1=O)NCc1ccccc1F`, the Potency is inactive: > 76.9 µM.
The same measure for `COC(=O)Cc1cc(=O)n(-c2nc3ccccc3[nH]2)[nH]1`: inactive: > 76.9 µM; for `O=C(CC1Nc2ccccc2NC1=O)NCc1cccnc1` (stereo unspecified): inactive: > 76.9 µM.
Regarding `O=c1c2ccccc2c(C=Nc2ccc(Cl)cn2)c(O)n1-c1cc(Cl)ccc1N1CCOCC1`, the Potency is inactive: > 76.9 µM.
To `COc1ccc(CCn2c(=O)[nH]c3cc(C(=O)NCCCN4CCOCC4)ccc3c2=O)cc1OC` belongs inactive: > 76.9 µM; to `COC(=O)CN1C(=O)C(O)(CC(=O)c2ccc(C)cc2)c2ccccc21` (stereo unspecified), inactive: > 76.9 µM.
The same measure for `O=C(Cn1c(=S)nc2ccccn21)N1CCc2ccccc2C1`: inactive: > 76.9 µM.
`CSc1ccccc1C(=O)Nc1cccc(C(C)O)c1` (stereo unspecified): the Potency is inactive: > 76.9 µM.
To `O=C(O)CCNS(=O)(=O)c1ccc2c(c1)Cc1ccccc1-2` belongs inactive: > 76.9 µM; to `CCC(=O)NCCC(c1ccco1)c1ccccc1OC` (stereo unspecified), inactive: > 76.9 µM.
The same measure for `O=C(CCS(=O)(=O)c1cccc2nonc12)NCCc1ccccc1`: inactive: > 76.9 µM; for `CCOc1ccc(NC(=O)CSc2nnc(-c3ccccc3Cl)n2Cc2ccco2)cc1`: inactive: > 76.9 µM.
The same measure for `Cc1nc2c(sc3nc4c(cc32)COC(C)(C)C4)c(=O)n1CC(=O)NCc1ccco1`: inactive: > 76.9 µM.
For the compound `CN(c1ccc(C(=O)NC2CC2)cc1)S(=O)(=O)c1ccccc1`, the Potency was inactive: > 76.9 µM.
As to `CCOc1ccccc1NC1c2ccccc2C(=O)N1c1cccnc1` (stereo unspecified), the Potency was inactive: > 76.9 µM.
To `Cc1noc(/C=C/N(C)C)c1S(=O)(=O)N(C)CC(=O)N1CCc2ccccc21` belongs inactive: > 76.9 µM; to `Cc1cnc(C(=O)OCC(=O)NC2CCCCC2)cn1`, inactive: > 76.9 µM; to `O=C(Nc1ccc(Cn2nnc3ccccc32)cc1)c1ccco1`, inactive: > 76.9 µM.
To `CCOC(=O)c1sc(=S)n(C)c1N` belongs inactive: > 76.9 µM.
To `Cc1ccc(SCc2nc(-c3ccccc3)no2)cc1` belongs inactive: > 76.9 µM; to `CCOc1ccc(OCC)c(S(=O)(=O)N2CCCCC2C)c1` (stereo unspecified), inactive: > 76.9 µM; to `Cc1onc(-c2ccccc2Cl)c1C(=O)NCc1ccc(N2CCCC2=O)cc1`, inactive: > 76.9 µM.
As to `CC(=O)Nc1ccc2oc(-c3ccccc3Br)nc2c1`, the Potency was inactive: > 76.9 µM.
To `CCCNc1ncccc1C(N)=O` belongs inactive: > 76.9 µM; to `O=C(c1ccccc1F)N1CCN(S(=O)(=O)c2ccc(S(=O)(=O)N3CCCCC3)cc2)CC1`, inactive: > 76.9 µM; to `O=C(OCC1OC2C(Oc3nc(=O)ccn32)C1O)c1ccccc1` (stereo unspecified), inactive: > 76.9 µM.
To `CCCOc1ccc2oc(=O)c3c(c2c1)CCCN3C(=O)CN1CCN(c2ncccn2)CC1` belongs inactive: > 76.9 µM.
The same measure for `COc1ccc(N2CCN(Cc3cc(=O)oc4ccc5ccccc5c34)CC2)cc1`: active: 5.96 µM.
For the compound `Cc1csc(C(C#N)C(=O)c2cc3ccccc3o2)n1` (stereo unspecified), the Potency is inactive: > 76.9 µM.
The same measure for `O=C(c1ccccc1F)N1CCN(c2ccccc2F)CC1`: inactive: > 76.9 µM; for `CCCCn1c(C(C)NC(=O)COC)nc2ccccc21` (stereo unspecified): inactive: > 76.9 µM.
Regarding `CCn1c(SCc2nc(CC(=O)Nc3ccccc3OC)no2)nnc1-c1cccs1`, the Potency was inactive: > 76.9 µM.
`Cc1ccc2c(c1)N(CC(=O)N1CCN(c3nc4ccccc4s3)CC1)C(=O)C(C)O2` (stereo unspecified): the Potency was inactive: > 76.9 µM.
To `CCCS(=O)(=O)N1CCCC(C(=O)NCCc2ccc(Cl)cc2)C1` (stereo unspecified) belongs inactive: > 76.9 µM; to `Nc1ccc[n+](Cc2ccccn2)c1`, inactive: > 76.9 µM; to `CCC(C)n1nccc1NC(=O)C(C)OC(=O)c1cc2ccccc2[nH]1` (stereo unspecified), inactive: > 76.9 µM.
The same measure for `c1coc(-c2nnc(SCc3nc4ccccc4[nH]3)o2)c1`: inactive: > 76.9 µM.
The same measure for `O=S(=O)(c1ccc(Cl)c(C(F)(F)F)c1)N1CCN(CC(O)COCC2CCCO2)CC1` (stereo unspecified): inactive: > 76.9 µM.
Take `COC(C)(C)[C@]12CC(O)(C(C)C)ON1[C@H]1CCCCC1N2O` (stereo partly specified): the Potency is inactive: > 76.9 µM.
The same measure for `O=C(c1ccccc1)c1nc[nH]c1C(=O)Nc1ccccc1`: inactive: > 76.9 µM; for `CN(C)S(=O)(=O)c1ccc(C(=O)Oc2ccccc2)cc1`: inactive: > 76.9 µM.
To `Cc1c(C(=O)O)[nH]c2c1C(=O)CC(c1ccccc1)C2` (stereo unspecified) belongs inactive: > 76.9 µM; to `O=c1[nH]c2ccsc2c(=O)n1-c1ccc(F)cc1`, inactive: > 76.9 µM; to `Cn1c(NCCCN2CCOCC2)nc2c1c(=O)n(Cc1ccc(Cl)cc1Cl)c(=O)n2C`, inactive: > 76.9 µM.
The same measure for `CCOC(=O)N1CCN(C(=O)COc2ccc(S(=O)(=O)Nc3ccc(OCC)cc3)cc2)CC1`: inactive: > 76.9 µM.
With `O=C(c1ccco1)N1CCN(C(=O)C2(S(=O)(=O)c3ccc(Cl)cc3)CC2)CC1`, the Potency is inactive: > 76.9 µM.
`COC(=O)c1ccccc1NC(=O)COC(C)=O`: the Potency is inactive: > 76.9 µM.
For the compound `CC(=O)Nc1cccc(Oc2ccc3c(c2)C(=O)N(CCC(=O)O)C3=O)c1`, the Potency is inactive: > 76.9 µM.
On to `COc1ccc(N2CCN(CC(=O)Nc3cc(C)on3)CC2)cc1`, for which the Potency is inactive: > 76.9 µM.
For the compound `O=C(NCCCN1CCCC1=O)c1ccc(CNS(=O)(=O)c2ccc(F)cc2)cc1`, the Potency was inactive: > 76.9 µM.
In the case of `COC(=O)c1ccccc1NC(=O)CCNC(=O)Cn1cnc2ccccc2c1=O`, the Potency is inactive: > 76.9 µM.
To `COc1ccccc1-n1c(SCC(=O)NC2CCCC2)nc2cccnc21` belongs inactive: > 76.9 µM; to `O=C(c1cccc(N2CCCC2=O)c1)N1CCN(c2ccccc2)CC1`, inactive: > 76.9 µM.
The same measure for `COc1ccccc1CC(=O)NCCc1ccc(S(N)(=O)=O)cc1`: inactive: > 76.9 µM; for `O=c1c2ccccc2nc2n1CCC2`: inactive: > 76.9 µM; for `O=C(CSCc1ccc(F)cc1)NC1CCCC1`: inactive: > 76.9 µM.
Turning to `Cc1cnc(NC(=O)CSc2nnc(-c3ccncc3)n2C2CCCCC2)s1`, the Potency is inactive: > 76.9 µM.
The same measure for `COC(=O)c1ccc(C(=O)OC)c(N)c1`: inactive: > 76.9 µM; for `O=C(OCC(=O)N1CCC(Cc2ccccc2)CC1)c1ccc[nH]c1=O`: inactive: > 76.9 µM.

These data come from PubChem BioAssay AID360 (National Center for Advancing Translational Sciences (NCATS), 2006).
